Out of some 330,000 compounds screened, about 4,200 (1.3%) were called active. Inconclusive results, whose numbers are uncertain, are shown with a selection of clear calls. Calls follow the shape of the dose curve; as a rule, active = well fitted activation curve with a large enough effect; inconclusive = small, poorly fitted or top-dose-only effect; inactive = no such curve, though single readings can be large or run the other way. Potencies beside an inconclusive call are fits to weak or partial responses and may not hold up.
Experiment: qHTS screen for small molecules that induce genotoxicity in human embryonic kidney (HEK293T) cells expressing luciferase-tagged ELG1; also: nearly all actives have a fitted effect of over 60% in size; as to activity change, positive = activation: % of control where 0% means no effect
Details: HEK293T ELG1-luciferase reporter, luminescence, 16 h; series mostly up to 46 µM; activity change, positive = activation: at the top concentration
Method in brief: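 Luminescence read-out: rising ELG1-luciferase signal, reflecting elevated ELG1 protein under genetic stress, flags genotoxic compounds. Cells were treated for 16 hr at 37 °C before ONE-Glo detection.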
In the case of Cc1ccc(S(=O)(=O)N2CCOCC2)cc1C(=O)NCc1cccnc1, the “activity change, positive = activation” value is reported as inactive: -0.102%.
For C/C(=N\NC(=O)c1ccccn1)c1ccc(C(=O)O)s1, the Potency was inconclusive: 32.6 µM [activator, partial curve, poor fit].
With CCc1cc(-c2[nH]ncc2-c2ccc(OC)cc2)c(O)cc1O the “activity change, positive = activation” value was inactive: -14.7%.
For COc1cccc2sc(N(C)c3ccccc3)nc12, the Potency was active: 1.64 µM.
With O=C(CSc1nnc(-c2ccco2)o1)c1ccc[nH]1 the Potency was inconclusive: 8.2 µM [activator, partial curve].
For COC(=O)/C=C/S(=O)(=O)c1ccc(NC(C)=O)cc1, the Potency was inconclusive: 29.1 µM [activator, single point].
With COc1ccc(CNc2ccc(Br)cc2)cc1 the Potency was inconclusive: 23.1 µM [activator, single point].
In the case of COC(=O)c1ccn(Cc2ccccc2Cl)n1, the Potency is reported as inconclusive: 16.4 µM [activator, partial curve].
With Nc1nn(-c2ccccc2)nc1C(=O)OCc1ccccc1 the Potency was inconclusive: 20.6 µM [activator, partial curve, poor fit].
For Cc1cc(C(=O)Nc2sc3c(c2C#N)CCC(C)C3)no1 (stereo unspecified), the Potency was active: 2.06 µM.
In the case of Cn1nnc(-c2ccc(OCc3ccccc3F)cc2)n1, the Potency is reported as active: 9.2 µM.
In the case of c1cc(N2CCCC2)ccc1C(c1nnnn1C1CCCCC1)N1CCOCC1 (stereo unspecified), the “activity change, positive = activation” value is reported as inactive: 1.79%.
With CC(C)OP(=O)(c1ccc(N(C)C)cc1)C(O)c1ccc(C(C)C)cc1 (stereo unspecified) the “activity change, positive = activation” value was inactive: -0.927%.
In the case of COc1ccc(C2C(C(=O)c3cccs3)=C(O)C(=O)N2Cc2cccnc2)cc1OC (stereo unspecified), the Potency is reported as inconclusive: 18.3 µM [activator, single point].
In the case of O=C(Nc1ccc2c(c1)OCO2)Nc1ccc(Br)cn1, the Potency is reported as active: 7.31 µM.
With COCc1nnc(NC(=O)c2sc3ccccc3c2Cl)s1 the Potency was inconclusive: 20.6 µM [activator, partial curve, poor fit].
For O=c1c2ccccc2oc2c1oc1ccccc12, the Potency was inconclusive: 16.4 µM [activator, partial curve].
With COc1ccc(NC(=S)NCCC(c2ccccc2)c2ccccc2)c(OC)c1 the Potency was inconclusive: 29.1 µM [activator, single point].
In the case of COc1ccc(CNC(=O)c2c(C)nc3ccccn23)cc1, the “activity change, positive = activation” value is reported as inactive: -7.03%.
With O=C(Nc1ccc(Br)cc1)C1OCCc2ccccc21 (stereo unspecified) the “activity change, positive = activation” value was inactive: 1.7%.
In the case of O=C(Nc1ccccc1)c1ccc(CSc2ncccn2)cc1, the Potency is reported as inconclusive: 0.731 µM [activator, full curve].
In the case of CCCCOc1ccc(C(=O)N2CCC(C)CC2)cc1, the Potency is reported as inconclusive: 32.6 µM [activator, partial curve, poor fit].
With C[C@H](CO)N1C[C@H](C)[C@@H](CN(C)S(=O)(=O)c2ccccc2)Oc2c(NC(=O)NC3CCCCC3)cccc2C1=O the “activity change, positive = activation” value was inactive: -1.86%.
For Cc1occc1C(=O)NNC(=O)c1ccccc1[N+](=O)[O-], the “activity change, positive = activation” value was inactive: 0.432%.
For C(=N\Nc1nc2ccccc2[nH]1)/c1c[nH]c2ccccc12, the Potency was inconclusive: 20.6 µM [activator, partial curve].
In the case of CC1CCCC(C)N1C(=O)CN1CCN(c2nc(-c3ccc(F)cc3)cs2)CC1 (stereo unspecified), the Potency is reported as inconclusive: 20.6 µM [activator, single point].
In the case of Cc1cc(C(=O)NC(C)CCc2ccccc2)ccc1[N+](=O)[O-] (stereo unspecified), the “activity change, positive = activation” value is reported as inactive: -1.47%.
For CC(=O)N(c1nnc(-c2cccc(C)c2)s1)C1CCCC1, the “activity change, positive = activation” value was inactive: 23.1%.
With COc1ccc(C(=O)Nc2ccc3c(c2)nc2n3CCSC2)cc1 the Potency was inconclusive: 6.51 µM [activator, partial curve].
For O=c1cc(CSc2nc3ccccc3[nH]2)c2ccccc2[nH]1, the “activity change, positive = activation” value was inactive: 12.8%.
In the case of N#CCC(=O)N/N=C\c1cccc(OC/C=C/c2ccccc2)c1, the Potency is reported as inconclusive: 0.73 µM [activator, partial curve, poor fit].
In the case of CCCc1nnc2n1N=C(c1ccc(OC)c(OC)c1)CS2, the Potency is reported as inconclusive: 18.4 µM [activator, partial curve].
With CC(C)(C)c1ccc(C(=O)CS(=O)(=O)c2ccccc2)cc1 the Potency was inconclusive: 23.1 µM [activator, partial curve, poor fit].
For COc1cc(C2C(N3C(=O)c4ccccc4C3=O)C(=O)N2c2ccc(C)c(C)c2)cc(OC)c1OC (stereo unspecified), the Potency was inconclusive: 23.1 µM [activator, single point].
For c1cncc(-c2nnc(-c3ccco3)o2)c1, the Potency was inconclusive: 16.4 µM [activator, partial curve, poor fit].
In the case of COc1ccccc1CSc1nc2ccccc2[nH]1, the Potency is reported as active: 23.1 µM.
With COc1ccc(/C=N/NC(=O)c2cccc(C(=O)N/N=C/c3ccc(OC)cc3)n2)cc1 the Potency was inconclusive: 18.3 µM [activator, partial curve, poor fit].
For Cc1sc(NC(=O)c2ccc3ncsc3c2)c(C(N)=O)c1C, the Potency was active: 2.31 µM.
In the case of COCC(=O)Nc1c(C(=O)Nc2ccc3c(c2)OCO3)oc2ccccc12, the Potency is reported as inconclusive: 2.06 µM [activator, partial curve].
With Cc1c(C(=O)NCCc2ccccc2)oc2ccccc12 the Potency was active: 2.06 µM.
In the case of O=C(CSc1ccc(F)cc1)NC12CC3CC(CC(C3)C1)C2, the “activity change, positive = activation” value is reported as inactive: 12.8%.
With CC(/C=C/c1ccccc1F)=N\NC(=O)c1ccccc1 the Potency was inconclusive: 6.51 µM [activator, partial curve, poor fit].
In the case of CCN(CC)C(=S)SCC(=O)c1ccc(F)cc1, the Potency is reported as inconclusive: 10.3 µM [activator, partial curve].
For CC1CCc2c(sc(NC(=O)c3c([N+](=O)[O-])cnn3C)c2C(N)=O)C1 (stereo unspecified), the “activity change, positive = activation” value was inactive: 16.2%.
In the case of Nc1ccc(-c2cc3ccccc3c(=O)o2)cc1, the Potency is reported as inconclusive: 13 µM [activator, partial curve, poor fit].
In the case of CC(=O)Nc1cc(-c2nn(C)c(=O)c3ccccc23)ccc1N1CCOCC1, the Potency is reported as inconclusive: 29.1 µM [activator, partial curve, poor fit].
In the case of COc1ccc(-n2c(C)cc(C3=NNC(=NC4CC4)SC3)c2C)cc1, the Potency is reported as inconclusive: 4.61 µM [activator, full curve, poor fit].
In the case of CC(=O)Nc1cccc(Oc2ccc(-c3noc(C)n3)cc2)c1, the Potency is reported as active: 9.2 µM.
For CCCCOc1ncnc2c1[nH]c1ccc(C)cc12, the Potency was inconclusive: 0.517 µM [activator, full curve, poor fit].
In the case of Cc1ccc(NS(=O)(=O)c2ccc(C(=O)N3CC(C)OC(C)C3)cc2)cc1 (stereo unspecified), the “activity change, positive = activation” value is reported as inactive: 4.67%.
In the case of NC(=S)Nc1cccc(-c2n[nH]c(=S)o2)c1, the “activity change, positive = activation” value is reported as inactive: -0.714%.
With O=C(OCc1ccc(Cl)c(Cl)c1)c1ccc[nH]1 the Potency was inconclusive: 18.3 µM [activator, partial curve].
With O=C(c1ccc(-c2ccccc2Cl)o1)N1CCC1 the Potency was inconclusive: 20.6 µM [activator, single point].
In the case of COc1ccc(NC(=O)CSc2nc(N)c(C(=O)Nc3ccc(N(C)C)cc3)s2)cc1, the Potency is reported as inconclusive: 5.8 µM [activator, partial curve].
With COc1cccc(CNC(=O)c2cccc(S(=O)(=O)N3CCN(C)CC3)c2)c1 the “activity change, positive = activation” value was inactive: -2.83%.
For CC(C)Cc1cc(C(=O)Nc2ccc3c(c2)OCO3)no1, the Potency was active: 4.61 µM.
In the case of O=C(CSc1ncnc2c1oc1ccccc12)N1CCCc2ccccc21, the Potency is reported as inconclusive: 18.4 µM [activator, single point].
In the case of O=C(CCSc1ccccc1)Nc1nc2c(s1)CCCC2, the Potency is reported as active: 23.1 µM.
In the case of Cc1ccc(C(=O)Cn2c(=N)n(N)c3ccccc32)cc1, the Potency is reported as inconclusive: 9.2 µM [activator, partial curve].
In the case of CCCn1c(NCc2cccc(OC)c2OC)nc2ccccc21, the Potency is reported as inconclusive: 13 µM [activator, partial curve, poor fit].
With CCc1nnc(NC(=O)c2ccc3c(c2)C(=O)N(C(C)(C)C)C3=O)s1 the Potency was inconclusive: 5.8 µM [activator, partial curve].
With CCN(CC)C(=O)c1ccc(NS(=O)(=O)c2ccc3[nH]c(=O)[nH]c3c2)cc1 the “activity change, positive = activation” value was inactive: -12.2%.
In the case of COc1ccccc1Nc1ncc(C(C)=O)c(C)n1, the Potency is reported as inconclusive: 25.9 µM [activator, single point].
In the case of COC1=C(Nc2ccc(OC)cc2)C(=O)c2ccccc2C1=O, the “activity change, positive = activation” value is reported as inactive: 3.56%.
With COc1cccc(Nc2ncnc3ccccc23)c1 the Potency was active: 4.61 µM.
With Cc1ccc(O)c(/C=N/NC(=O)CN2CCCC2)c1 the Potency was inconclusive: 20.6 µM [activator, partial curve, poor fit].
With O=c1c2ccccc2nnn1CSc1nnc(-c2ccc3c(c2)OCO3)o1 the Potency was inconclusive: 23.1 µM [activator, single point].
In the case of Cc1ccc(NC(=O)c2ccc(NCc3ccco3)c([N+](=O)[O-])c2)cc1Cl, the Potency is reported as inconclusive: 16.4 µM [activator, partial curve, poor fit].
In the case of Fc1ccc2nc(Nc3ccccc3)sc2c1, the Potency is reported as inconclusive: 9.2 µM [activator, partial curve].
With C=CCOc1ccc(/C(O)=C2/C(=O)C(=O)N(CCCn3ccnc3)C2c2cccs2)cc1 (stereo unspecified) the “activity change, positive = activation” value was inactive: 4.37%.
In the case of CCCC(=O)Nc1nc(C)c(-c2csc(Nc3cc(OC)ccc3OC)n2)s1, the “activity change, positive = activation” value is reported as inactive: 2.07%.
In the case of COc1ccc(CC(=O)Nc2cccc(SC)c2)cc1OC, the “activity change, positive = activation” value is reported as inactive: 16.4%.
For Fc1ccc(C2=CC(c3ccco3)n3ncnc3N2)cc1 (stereo unspecified), the “activity change, positive = activation” value was inactive: 1.38%.
In the case of Cc1ccc(C(=O)N[C@H](C(=O)Nc2sccc2C(N)=O)C(C)C)cc1, the Potency is reported as inconclusive: 6.51 µM [activator, single point].
With O=[N+]([O-])/C=C/c1cn(Cc2ccc(F)cc2)c2ccccc12 the Potency was inconclusive: 29.1 µM [activator, partial curve, poor fit].
With CC1CCc2sc(C(=O)N3CCC(C(N)=O)CC3)cc2C1 (stereo unspecified) the Potency was inconclusive: 8.2 µM [activator, partial curve].

— PubChem BioAssay AID504466 (National Center for Advancing Translational Sciences (NCATS), 2011)
Potency is read from the fitted curve at half-maximal effect; tags tell the direction and shape of the fitted curve.
